Among all 310,000 compounds or so, about 2,200 (0.71%) showed an effect of 50% or more. Effects have a minus sign here. The list shows a part of the results.

Sequence of human ether-à-go-go-related gene (hERG) potassium channel (Q12809 whole entry, looked up): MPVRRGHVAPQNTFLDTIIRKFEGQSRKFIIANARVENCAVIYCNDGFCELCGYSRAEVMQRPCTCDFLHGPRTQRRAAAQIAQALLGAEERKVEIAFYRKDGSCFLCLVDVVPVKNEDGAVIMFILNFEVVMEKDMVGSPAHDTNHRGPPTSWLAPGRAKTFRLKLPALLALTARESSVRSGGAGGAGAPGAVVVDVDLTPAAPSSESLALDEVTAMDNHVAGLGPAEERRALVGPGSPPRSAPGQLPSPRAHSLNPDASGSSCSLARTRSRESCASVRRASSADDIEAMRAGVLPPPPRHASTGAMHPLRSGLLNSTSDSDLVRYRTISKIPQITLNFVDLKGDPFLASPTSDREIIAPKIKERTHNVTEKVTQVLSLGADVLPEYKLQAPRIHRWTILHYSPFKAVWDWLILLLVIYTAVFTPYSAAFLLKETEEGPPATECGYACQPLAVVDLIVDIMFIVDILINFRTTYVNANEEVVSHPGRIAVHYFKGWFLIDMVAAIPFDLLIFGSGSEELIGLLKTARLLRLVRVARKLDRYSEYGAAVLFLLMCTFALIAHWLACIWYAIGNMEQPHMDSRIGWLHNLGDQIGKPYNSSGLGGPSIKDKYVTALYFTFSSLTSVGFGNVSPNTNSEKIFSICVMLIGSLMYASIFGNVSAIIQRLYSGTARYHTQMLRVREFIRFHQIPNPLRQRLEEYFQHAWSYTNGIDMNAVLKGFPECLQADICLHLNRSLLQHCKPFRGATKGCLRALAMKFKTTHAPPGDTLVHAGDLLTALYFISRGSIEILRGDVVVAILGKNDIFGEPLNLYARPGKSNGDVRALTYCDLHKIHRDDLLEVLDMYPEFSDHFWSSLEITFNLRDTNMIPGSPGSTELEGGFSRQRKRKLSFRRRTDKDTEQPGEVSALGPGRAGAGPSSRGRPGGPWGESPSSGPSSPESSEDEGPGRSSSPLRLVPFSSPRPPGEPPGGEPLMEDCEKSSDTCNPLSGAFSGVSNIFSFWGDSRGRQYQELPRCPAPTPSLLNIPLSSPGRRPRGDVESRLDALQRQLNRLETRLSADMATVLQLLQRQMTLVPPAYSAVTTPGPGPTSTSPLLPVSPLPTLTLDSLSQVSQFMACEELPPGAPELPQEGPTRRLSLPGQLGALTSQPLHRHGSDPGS

The experiment addresses human ether-à-go-go-related gene (hERG) potassium channel (human, UniProt Q12809). Briefly: primary screen, population patch clamp on CHO cells stably expressing hERG.
Take `COc1cccc(/C=N/n2c(-c3cc(C)[nH]n3)n[nH]c2=S)c1OC`: the “hERG current change (%, negative = inhibition) at 1uM” value was determined as 13.9%. In the case of `COc1ccc(-n2c(C)nc3c(cnn3-c3ccc(C)c(C)c3)c2=O)cc1` it was -3.3%.

Regarding `Cc1ccc(SCc2cn3c(C)cc(C)nc3n2)cc1`, the “hERG current change (%, negative = inhibition) at 1uM” value is listed as -8.39%. With `O=C(O/N=C/c1cccc([N+](=O)[O-])c1)C1CC1`, the “hERG current change (%, negative = inhibition) at 1uM” value amounted to 13.8%. For `O=C(CCc1nnc2n(Cc3ccc(Cl)cc3)c(=O)c3ccccc3n12)NCCN1CCCC1` the value was -28.6%; for `COc1ccc(N2C(=O)CC(N3CCN(C(=O)c4ccco4)CC3)C2=O)cc1` (stereo not shown), 8.21%. In the case of `Cc1cc(NC(=O)CSc2nnc(-c3ccccc3)n2C)no1` it was 14.7%; in that of `CCc1ccc(NC(=O)C2CC(=O)N=C(N)S2)cc1` (stereo not shown), 10.7%; in that of `Nc1ccccc1C(=O)NC12CC3CC(CC(C3)C1)C2`, 13.5%. For `COc1ccc(C(=O)C(CN2CCOCC2)c2ccccc2)cc1.Cl` (stereo not shown) the value was 2.83%; for `CSCCC(C(=O)NCc1cccs1)N1C(=O)c2ccccc2C1=O` (stereo not shown), 6.56%; for `CCNC(=O)CC1SC(=Nc2ccc(C)cc2)NC1=O` (stereo not shown), 14.2%. Consider `Cn1c([N+](=O)[O-])cnc1N1CCN(c2nncs2)C1=O`, for which the “hERG current change (%, negative = inhibition) at 1uM” value is 3.39%. Regarding `CCOc1ccc(CCNC(=O)COC(=O)c2sccc2C)cc1OCC`, the “hERG current change (%, negative = inhibition) at 1uM” value was 10.7%. For `CCC(C(=O)NCc1ccco1)n1nc(C)c2c(C)n(-c3ccc(C)cc3)nc2c1=O` (stereo not shown) the value was -9.7%; for `O=C(CN1CCN(Cc2cccc(Cl)c2)C1=O)NCC1CCCO1` (stereo not shown), 8.62%.

Consider `O=C(Nc1ccc(F)cc1)c1ccc(S(=O)(=O)NCC2CCCO2)cc1` (stereo not shown), for which the “hERG current change (%, negative = inhibition) at 1uM” value is 12.5%. For `COc1ccc(OC)c(N/C=C/C(=O)c2ccc(OC)c(OC)c2)c1` the value was 13.1%; for `CC(C)Cc1nnc(NC(=O)CS(=O)(=O)Cc2ccccc2)s1`, 15.1%; for `CN(C)S(=O)(=O)c1cccc(NC(=O)CCCSc2ccccc2)c1`, 7.13%. `COC(=O)c1ccc(N2C(=O)Nc3ccccc3N2O)cc1`: the “hERG current change (%, negative = inhibition) at 1uM” value turned out to be 12.7%.

Take `FC(F)(F)c1cc(-c2ccco2)nc(NCCc2ccccc2)n1`: the “hERG current change (%, negative = inhibition) at 1uM” value is 11.4%. In the case of `O=C(c1ccco1)c1cn(CC(=O)N2CCCC2)c2ccccc12` it was 6.91%; in that of `Cc1cc(Cl)ccc1N1C(=O)CC(NNC(=O)c2cccnc2)C1=O` (stereo not shown), 2.19%; in that of `COCCNC(=O)Cn1cc(C(=S)N2CCOCC2)c2ccccc21`, 6.79%. As for `Cc1ccccc1N1CC(O)(c2cccs2)[N+]2=C1CCCC2.[Br-]` (stereo not shown), the “hERG current change (%, negative = inhibition) at 1uM” value is -2.75%. Take `CCn1c(SCC(=O)Nc2ccc3c(c2)OCCO3)nnc1-c1ccco1`: the “hERG current change (%, negative = inhibition) at 1uM” value was determined as 9.44%. For `COc1ccc(CNC(=O)COC(=O)C(CCSC)NC(=O)c2ccco2)cc1OC` (stereo not shown) the value was 10.7%; for `O=C(c1cccc([N+](=O)[O-])c1)c1ccccn1`, 8.37%; for `Cc1c(CN2CCN(C)C(CCO)C2)[nH]c2c(Cl)cccc12` (stereo not shown), -5.03%. For `COc1ccc(NC(=O)c2cc3ccccn3n2)cc1` the value was -3.79%; for `C/C(=N/NC(=O)CNC(=O)c1cccnc1)c1ccc(Cl)cc1`, 9.47%; for `CCc1nnc2n1N=C(c1ccc(-c3cc(Cl)ccc3Cl)o1)CS2`, 15.9%. For `COc1cc(OC)cc(C(=O)N2CCCc3ccccc32)c1` the value was 4.31%; for `CNNC(=O)C(C)NC(=O)c1ccc(Br)cc1` (stereo not shown), -9.65%. In the case of `CC(C)CCOC(=O)C[N+](C)(C)CCOC1CC2CCC1(C)C2(C)C.[Cl-]` (stereo not shown), the “hERG current change (%, negative = inhibition) at 1uM” value was -1.93%. For `C=CCn1c(COc2ccccc2F)nnc1SCCN1C(=O)c2ccccc2C1=O` the value was -1.37%; for `O=C1NC(=O)/C(=C/c2cccc(O)c2)N1`, 12.9%.

On to `CC(=O)Nc1ccc(OCC(=O)NC(C)c2ccc(F)cc2)cc1` (stereo not shown), for which the “hERG current change (%, negative = inhibition) at 1uM” value turned out to be 14.9%. For `COc1cc(C(=O)NCCC(=O)NC2CCCc3ccccc32)cc(OC)c1OC` (stereo not shown) the value was 31.1%; for `O=C(O)C(=O)O.O=S(=O)(c1ccc(F)cc1)N1CCN(Cc2ccccn2)CC1`, 8.85%; for `N#CC1=C(SCC(=O)c2ccc(Br)cc2)NC2=C(C(=O)CCC2)C1c1ccco1` (stereo not shown), 4.69%.

Regarding `COc1ccccc1-c1oc2ccccc2c1C#CCCO`, the “hERG current change (%, negative = inhibition) at 1uM” value is on record as 9.84%. In the case of `COc1ccc(-c2ccc(NC(=O)c3ccco3)cc2)nn1` it was 15.5%. With `O=C(O)c1cccc2c1C(=O)N(c1ccccc1)C2`, the “hERG current change (%, negative = inhibition) at 1uM” value came out at 7.58%. For `Cc1nn(C)c(-c2n[nH]c(=S)n2-c2ccccc2)c1Cl` the value was 20.8%.

With `CCOc1cc(/C=C(\C#N)c2nc3ccccc3[nH]2)ccc1OC(C)C(=O)O` (stereo not shown), the “hERG current change (%, negative = inhibition) at 1uM” value turned out to be 11.3%. In the case of `O=C(OC(C(=O)NC1CCCC1)c1ccccn1)c1cccs1` (stereo not shown) it was 2.51%; in that of `COC(=O)c1c(NC(=O)CSc2nc3ccccc3c(=O)n2Cc2ccco2)sc(C)c1C`, 2.12%. For `CC(C)[C@H](NC(=O)c1ccco1)C(=O)OCC(=O)Nc1cccc(F)c1` the value was 7.89%; for `CCCn1c(=O)c(C(=O)Nc2ccccc2C(=O)OC)c(O)c2ccccc21`, 1.64%; for `O=C(NS(=O)(=O)Oc1cccc(Cl)c1Cl)OC[C@@H]1CCCN2CCCCC12` (stereo partly shown), 9.33%.

Turning to `O=C(Nc1ccncc1)c1ccc(Cl)c(S(=O)(=O)N2CCCC2)c1`, the “hERG current change (%, negative = inhibition) at 1uM” value was 7.67%. For `COc1ccccc1NC(=O)NC1(C(=O)N2CCCCC2)CCCCC1` the value was 16.3%. As to `O=C(CN1CCC(O)(c2ccc(F)cc2)CC1)NCc1ccc(F)cc1`, the “hERG current change (%, negative = inhibition) at 1uM” value is given as -0.396%. Regarding `COc1ccccc1OCC(=O)NCC1CCCCC1`, the “hERG current change (%, negative = inhibition) at 1uM” value is recorded as 2.22%.

With `Cc1ccc(-n2c(SCC(=O)NCc3ccco3)nc3c([nH]c4ccccc43)c2=O)cc1`, the “hERG current change (%, negative = inhibition) at 1uM” value is listed as 7.44%. As to `CCc1onc(C)c1C(=O)Nc1cc(C)ccc1OC`, the “hERG current change (%, negative = inhibition) at 1uM” value is recorded as 8.49%.

For the origin of these results see article PMC4336329 (PLoS ONE, 2015).
